According to a collection of fitness landscapes (doi:10.1016/j.celrep.2020.107928):
Over roughly 81,000 sequences, “one-hybrid fitness for binding parS DNA” has its median near -0.17; the highest 2% begin near 0.51. The list shows a part of the results.

B1: Caulobacter ParB omega fusion; a variant is named by its letters at X, in order, B8GW30 (parent)
chain: MESVVVGEPGMSEGRRGLGRGLSALLGEVDAAPAQAPGEQLGGSREAPIEILQRNPDQPRRTFREEDLEDLSNSIREKGVLQPILVRPSPDTAGEYQIVAGERAWRAAQRAGLKTVPIMVRELDDLAVLEIGIIENVQRADLNVLEEALSYKVLMEKFERTQENIAQTIGKSXSHVANXMRLLXLPDEVQSYLVSGELTAXHARAIAAAADPVALAKQIIEGGLSVRETEALARKAPNLSAGKSKGGRPPRVKDTDTQALESDLSSVLGLDVSIDHRGSTGTLTITYATLEQLDDLCNRLTRGI

Variants of: B1
Assay: one-hybrid fitness for binding parS DNA (scaled: cognate 1, non-cognate 0); higher = stronger binding
Conditions: with parS DNA site
In short: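 Fitness here means the log change in variant-to-wild-type read ratio between plasmids sequenced before and after selection. That scale was set so cognate equals 1 and non-cognate equals 0. The selection was a bacterial one-hybrid screen of Caulobacter ParB libraries, four specificity codons randomised, in E. coli USO carrying a HIS3 reporter with the site 19 bp from the promoter, grown 48 hours at 37°C on M9-minus-histidine with 0.1 mM IPTG and 5 mM 3-AT.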

| Variant | one-hybrid fitness for binding parS DNA |
| --- | --- |
| CNAG | ≤ 0.2 |
| QQRH | ≤ 0.2 |
| DFPL | ≤ 0.2 |
| QQKK | ≤ 0.2 |
| TSTE | ≤ 0.2 |
| LTWT | ≤ 0.2 |
| HITA | ≤ 0.2 |
| KVCT | ≤ 0.2 |
| EANC | ≤ 0.2 |
| LSGD | ≤ 0.2 |
| QFLR | ≤ 0.2 |
| ALDD | ≤ 0.2 |
| GQRI | ≤ 0.2 |
| TDHQ | ≤ 0.2 |
| EVGR | ≤ 0.2 |
| YYAL | ≤ 0.2 |
| TVVF | ≤ 0.2 |
| IDGT | ≤ 0.2 |
| LTIQ | ≤ 0.2 |
| MALI | ≤ 0.2 |
| SHVW | ≤ 0.2 |
| TLTC | ≤ 0.2 |
| TTRT | ≤ 0.2 |
| PMET | ≤ 0.2 |
| DPKP | ≤ 0.2 |
| LCDF | ≤ 0.2 |

| Variant | one-hybrid fitness for binding parS DNA |
| --- | --- |
| SVKS | ≤ 0.2 |
| VITS | ≤ 0.2 |
| LTHL | ≤ 0.2 |
| SSLT | ≤ 0.2 |
| KHKR | ≤ 0.2 |
| ERKI | ≤ 0.2 |
| SCQT | ≤ 0.2 |
| CCMT | ≤ 0.2 |
| VIRA | ≤ 0.2 |
| KCTR | ≤ 0.2 |
| KINA | ≤ 0.2 |
| GTSK | ≤ 0.2 |
| STVS | ≤ 0.2 |
| HRTI | ≤ 0.2 |
| RRRQ | ≤ 0.2 |
| THWG | ≤ 0.2 |
| YHLA | ≤ 0.2 |
| YHGR | ≤ 0.2 |
| LADC | ≤ 0.2 |
| PSNF | ≤ 0.2 |
| QSWQ | ≤ 0.2 |
| RSVW | ≤ 0.2 |
| DRCY | ≤ 0.2 |
| QART | ≤ 0.2 |
| ADMT | ≤ 0.2 |
| RYSQ | ≤ 0.2 |

| Variant | one-hybrid fitness for binding parS DNA |
| --- | --- |
| SFPS | ≤ 0.2 |
| YRRR | ≤ 0.2 |
| WKRV | ≤ 0.2 |
| HCRL | ≤ 0.2 |
| TVGF | ≤ 0.2 |
| ACKY | ≤ 0.2 |
| GVRY | ≤ 0.2 |
| HTLE | ≤ 0.2 |
| DMSR | ≤ 0.2 |
| SAFG | ≤ 0.2 |
| EDNP | ≤ 0.2 |
| AHYV | ≤ 0.2 |
| SSRD | ≤ 0.2 |
| AAIG | ≤ 0.2 |
| LKLT | ≤ 0.2 |
| RLIC | 0.938 |
| EYSI | ≤ 0.2 |
| DRWS | ≤ 0.2 |
| PHTQ | ≤ 0.2 |
| GKPT | ≤ 0.2 |
| RMQE | ≤ 0.2 |
| HTNR | ≤ 0.2 |
| RLGY | 0.5 |
| LVLD | ≤ 0.2 |
| RANV | ≤ 0.2 |
| VSKC | ≤ 0.2 |

| Variant | one-hybrid fitness for binding parS DNA |
| --- | --- |
| VKTM | ≤ 0.2 |
| GVTE | ≤ 0.2 |
| KVSF | ≤ 0.2 |
| LLHR | ≤ 0.2 |
| TDPP | ≤ 0.2 |
| DSTP | ≤ 0.2 |
| VKLG | ≤ 0.2 |
| CCHT | ≤ 0.2 |
| TNQN | ≤ 0.2 |
| TADC | ≤ 0.2 |
| GTGC | ≤ 0.2 |
| NDNG | ≤ 0.2 |
| QRED | ≤ 0.2 |
| KSHT | ≤ 0.2 |
| VSGR | ≤ 0.2 |
| PQET | ≤ 0.2 |
| PGAA | ≤ 0.2 |
| RNYM | ≤ 0.2 |
| LERE | ≤ 0.2 |
| TGPR | ≤ 0.2 |
| HSDR | ≤ 0.2 |
| FQSG | ≤ 0.2 |
| LDNM | ≤ 0.2 |
| EHLL | ≤ 0.2 |
| PVRE | ≤ 0.2 |
| WIPS | ≤ 0.2 |

| Variant | one-hybrid fitness for binding parS DNA |
| --- | --- |
| WLIN | ≤ 0.2 |
| TQYA | ≤ 0.2 |
| DQLS | ≤ 0.2 |
| YPAK | ≤ 0.2 |
| TVKK | ≤ 0.2 |
| VHEC | ≤ 0.2 |
| LIIG | ≤ 0.2 |
| CNLR | ≤ 0.2 |
| YDNR | ≤ 0.2 |
| PMVM | ≤ 0.2 |
| VGRG | ≤ 0.2 |
| KGMT | ≤ 0.2 |
| HRYY | ≤ 0.2 |
| DCPS | ≤ 0.2 |
| DAPE | ≤ 0.2 |
| NWCS | ≤ 0.2 |
| ESMC | ≤ 0.2 |
| DWLS | ≤ 0.2 |
| WLES | ≤ 0.2 |
| NRDC | ≤ 0.2 |
| MGRE | ≤ 0.2 |
| DGHI | ≤ 0.2 |
| STYT | ≤ 0.2 |
| GLRR | ≤ 0.2 |
| MISK | ≤ 0.2 |
| RMDQ | ≤ 0.2 |

| Variant | one-hybrid fitness for binding parS DNA |
| --- | --- |
| PYRT | ≤ 0.2 |
| RQGH | 0.249 |
| QAME | ≤ 0.2 |
| ETMD | ≤ 0.2 |
| WCLN | ≤ 0.2 |
| HYNF | ≤ 0.2 |
| QNME | ≤ 0.2 |
| AHTN | ≤ 0.2 |
| TWGC | ≤ 0.2 |
| HEKL | ≤ 0.2 |
| FTDS | ≤ 0.2 |
| DHHL | ≤ 0.2 |
| GNSM | ≤ 0.2 |
| IQYS | ≤ 0.2 |
| QHKD | ≤ 0.2 |
| QYTY | ≤ 0.2 |
| MVKS | ≤ 0.2 |
| KDLC | ≤ 0.2 |
| MNIG | ≤ 0.2 |
| LNMI | ≤ 0.2 |
| PRDP | ≤ 0.2 |
| NHNT | ≤ 0.2 |
| VKSC | ≤ 0.2 |
